Measured values as given in patent US10751422B2, “Antibody drug conjugates (ADC) that bind to FLT3 proteins” (AGENSYS, INC., priority 2015, dated 2020).

B1: v62-1b37.1: FLT3 ligand blocker Mab, heavy chain SEQ ID NO: 12, light chain SEQ ID NO: 13 (antibody, listed as Homo sapiens)
heavy: EVQLVESGGGVVRPGGSLRLSCAASGFTFDDYGMSWVRQAPGKGLEWVSGINWNGGSTGYADSVKGRFTISRDDAKNSLYLQMNSLRAEDTALYHCARDGYTYGPFDNWGQGTLVTVSS[skipping human IgG1 constant region]
light: DIQMTQSPSSLSASVGDRVTITCRASQGIRNDLGWYQQKPGKAPKRLIYAASSLQSGVPSRFSGSGSGTEFTLTISSLQPEDFATYYCLQHNSYPYTFGQGTKLEIKRTVAAPSVFIFPPSDEQLKSGTASVVCLLNNFYPREAKVQWKVDNALQSGNSQESVTEQDSKDSTYSLSSTLTLSKADYEKHKVYACEVTHQGLSSPVTKSFNRGEC
modifications: v62-1b37.1 heavy chain; v62-1b37.1 light chain
B2: v62-1b37.1-AGL-0129-08 (conjugate)
heavy: B1 heavy
light: B1 light

How the values were obtained:
[1] = biological target: T1, Recombinant human FLT3-Fc (Homo sapiens, UniProt P36888); test: FLT3 ligand blocking assay on Luminex microspheres; format: binding; settings: biotinylated FLT3 ligand 5 ng/mL; antibody 10 μg/mL; 60 minutes
T1 construct: purchased R and D Systems
From the text: In one experiment, the CHv62.21 MAb of the invention was confirmed to not block FL. Briefly, Recombinant human FLT3-Fc was purchased from R and D Systems. This protein was immobilized onto the surface of activated Luminex microspheres using standard sulfo-NHS/EDC chemistry according to the procedure provided by Luminex. A His-tagged version of the protein, along with several other proteins were conjugated to Luminex microspheres, and served as controls in this procedure.
In addition, FLT3 ligand was also purchased from R and D Systems. The ligand was biotinylated using Thermo Scientific EZ-Link Sulfo-NHS-LC-Biotin, No-Weigh Formula according to the manufacturer's recommendations. After two (2) hours of reacting the protein with Sulfo-NHS-LC-Biotin, unincorporated biotin was removed by dialysis against DPBS.
The ability of FLT3 immobilized onto the surface of the microspheres to bind to its biotinylated ligand was assessed by reacting the microspheres with various concentrations of biotinylated ligand, prepared in buffer containing PBS, 2% BSA, 0.05% Tween 20, and 0.1% sodium azide, for 120 minutes at RT with gentle shaking. […] Biotinylated FLT3 ligand bound to its immobilized receptor was detected with Streptavidin-R-Phycoerythrin (Moss, Inc.). The fluorescence associated with the microspheres was measured with the Luminex instrument. […]

EOL-1 = EOL-1 cell growth with human FLT3 ligand and antibody (Cell Titer Glo, 5 days); format: cell-based; settings: 50, 10 or 5 ng/mL human FLT3 ligand, 10, 1, 0.1 μg/mL antibody
Experimental: The ability of FLT3 antibodies (CHv62.21 and v62-1b37.1) to mediate the effect of human FLT3 ligand was evaluated using the human leukemia EOL-1 cell line, which endogenously expresses FLT3. Isotype control antibody (mLys-1c3.1) was also used. […] The next day, cells were treated with 50, 10 or 5 ng/mL of human FLT3 ligand (in 25 μl of complete media) and 10, 1, 0.1 and 0 μg/mL of test antibody (in 25 μl of complete media). Media alone was used as the untreated control. […] At the end of the incubation period, 100 μl of Cell Titer Glo was added to each well and incubated for 30 minutes, shaking, at room temperature.

[2] = system: FLT3 expressed on the surface of human leukemia MOLM-13 cell line; test: Binding of biotinylated antibodies to MOLM-13 cells in the presence of human FLT3 Ligand (FACS); settings: hFL from 100 ng/mL serially diluted 1:2; biotinylated antibody 10 and 1 μg/mL
Experimental: In another experiment, The ability of anti-FLT3 antibodies, CHv62.21 and v62-1b37.1, to bind to FLT3 expressed on the surface of human leukemia MOLM-13 cell line was evaluated in the presence of human FLT3 Ligand (hFL). Isotype control antibody, AGS91.1-pAF, was used as a negative control.
Briefly, The MOLM-13 cells were seeded at a density of 50,000 cells per well onto round-bottom 96 well plates. The plates were washed one time with 150 μl per well of PBS. The cells were Fc blocked (20 μg/mL) at a volume of 50 μl per well in FACS buffer (PBS+2% FBS+0.1% sodium azide) to reduce non-specific binding. Cells were incubated at 4° C. for 15 minutes. Human FLT3 Ligand was added to appropriate wells at 100 ng/mL and serially diluted 1:2 across the plate for a total of 11 points. Cells were incubated for 30 minutes at 4° C. prior to adding biotinylated FLT3 antibodies. After incubation, the biotinylated anti-FLT3 antibodies and isotype control antibody were prepared in FACS buffer at 10 μg/mL and 1 μg/mL and 25 μl was added to wells and incubated for 1 hour at 4° C. Cells were washed two times with FACS buffer and Streptavidin-PE (Jackson immune) was added 100 μl per well and incubated for 1 hour at 4° C. Cells were washed two times with FACS buffer and read on the Attune Cytometer (Life technologies) and analyzed in FlowJo (Tree Star) software.

RS-4-11 = format: cell-based, human

| Molecule | blocking of FLT3 ligand (FL) binding to immobilized FLT3 [1] | effect on growth of EOL-1 cells in the presence of FLT3 ligand (EOL-1) | interference of human FLT3 Ligand with antibody binding to MOLM-13 cells [2] | cytotoxicity (RS-4-11) |
| --- | --- | --- | --- | --- |
| B1 | is a FL blocker | inhibits growth at high concentrations in the presence of FLT3 ligand | does interfere with the binding | – |
| B2 | – | – | – | can induce cytotoxicity |
